# In US20130085101A1 (CASE WESTERN RESERVE UNIVERSITY, published 2013):
# B1: insulin glargine ([Gly^A21, Arg^B31, Arg^B32]-insulin) (ligand)
# chain 1: not shown
# chain 2: not shown
# notes: Assayed as zinc-free monomer; also called Lantus
# B2: HisA4, A8 KP-ins (ligand)
# chain 1: not shown
# chain 2: not shown
# notes: also called [His^A4, His^A8]-KP insulin; A4A8-lispro
# Assays:
# [1] = biological target: T1, human Type 1 IGF receptor (human); assay: competitive displacement of 125I-Tyr31-IGF-I; FLAG-tagged IGF-1R captured on anti-FLAG plate; zinc-free
# T1 construct: mature; also called IGF-1R; Insulin-like Growth Factor Receptor
# [2] = biological target: T1, human Type 1 IGF receptor; assay: competitive displacement of 125I-Tyr31-IGF-I; FLAG-tagged IGF-1R captured on anti-FLAG plate
# [3] = biological target: T2, Human Insulin Receptor Isoform A (human); assay: receptor-binding assay on HIRA (details not given for this isoform)
# T2 construct: Isoform A is the short isoform of; also called HIRA
# [4] = biological target: T1, human Type 1 IGF receptor; assay: competitive displacement receptor-binding assay on IGF-1R
Binder,Kd [1] [nM],relative affinity [2],Kd [3] [nM],Kd [4] [nM]
B1,3.1,0.92 percent (of IGF-I for IGF-1R),,
B2,,,0.016,65.3
